Experimental data published in the supplement of paper PMC3334620.
In all, about 33,000 sequences were measured (“E-score (-0.5 to 0.5)”: median about -0.011, highest 2% from about 0.28 on). The list shows a part of the results.

Target: T1, Gcr1 (UniProt P07261)
T1 sequence: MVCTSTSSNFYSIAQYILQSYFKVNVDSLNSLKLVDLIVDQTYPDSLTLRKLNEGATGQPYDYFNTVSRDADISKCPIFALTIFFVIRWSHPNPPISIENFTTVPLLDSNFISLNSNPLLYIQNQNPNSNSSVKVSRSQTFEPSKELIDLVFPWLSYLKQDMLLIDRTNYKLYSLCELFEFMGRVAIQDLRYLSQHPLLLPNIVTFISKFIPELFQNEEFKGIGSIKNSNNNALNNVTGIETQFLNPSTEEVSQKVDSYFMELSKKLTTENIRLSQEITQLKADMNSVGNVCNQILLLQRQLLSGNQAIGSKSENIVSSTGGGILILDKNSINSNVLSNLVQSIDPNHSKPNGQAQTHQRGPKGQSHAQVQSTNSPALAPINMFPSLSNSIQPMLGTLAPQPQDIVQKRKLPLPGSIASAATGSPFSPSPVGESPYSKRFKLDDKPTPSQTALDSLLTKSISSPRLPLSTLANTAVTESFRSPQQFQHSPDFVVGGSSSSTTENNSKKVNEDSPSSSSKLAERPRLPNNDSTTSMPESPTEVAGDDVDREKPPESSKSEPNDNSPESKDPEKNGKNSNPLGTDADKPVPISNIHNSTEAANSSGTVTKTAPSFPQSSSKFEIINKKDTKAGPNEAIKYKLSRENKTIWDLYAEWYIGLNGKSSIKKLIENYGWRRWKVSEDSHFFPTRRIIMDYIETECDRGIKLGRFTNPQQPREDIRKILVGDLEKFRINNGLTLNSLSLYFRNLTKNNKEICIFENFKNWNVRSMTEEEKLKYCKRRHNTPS
Assay: PBM E-score (8-mer binding enrichment) (E-score (-0.5 to 0.5)); higher = stronger / more preferred TF binding; most listed sequences are background and not binding sites
Conditions: protein concentration: 100 nM; construct: GST-full length
In short: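 Masliner-normalised scans of fluorescent anti-GST signal were the basis for scoring. That signal came from GST-tagged yeast transcription factors applied at about 100-200 nM to double-stranded universal all-10-mer Agilent arrays on fresh or once-stripped slides. Each ungapped eight-base word, pooled with its reverse complement, received an E-score from the Universal PBM Analysis Suite.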

Row | Sequence | PBM E-score
1 | GGACAGAC | -0.197
2 | CGCGACAC | -0.064
3 | ATTTTACC | 0.0326
4 | CGCTTCCA | 0.351
5 | GTTTGGAA | 0.202
6 | CACCACCA | 0.14
7 | AAATGCGG | -0.032
8 | CCTTAACG | -0.0277
9 | ACATGCGT | -0.107
10 | GCCACATA | -0.0272
11 | CGCTTACC | -0.244
12 | GTTTGAAA | 0.111
13 | ACAATGTG | 0.00324
14 | AAAATGAA | 0.0635
15 | ATCAAGCG | -0.0474
16 | CATTTCGC | -0.0546
17 | CTTTGCGC | -0.136
18 | CCATTGGA | -0.00321
19 | GATGTGTA | -0.107
20 | CGACGGAC | -0.205
21 | CGGGATGC | 0.332
22 | CGTGATGC | -0.0264
23 | CCGACGGC | -0.164
24 | GTTACTCA | -0.127
25 | CTTGCGCA | 0.128

Row | Sequence | PBM E-score
26 | AGATCTTA | 0.0357
27 | GCGCATTA | 0.0132
28 | AATAAGCG | 0.0368
29 | CCCGTAGC | 0.149
30 | CTACACAC | -0.0391
31 | CAACGTTA | -0.0515
32 | GACGGGGC | 0.144
33 | AATTCACA | -0.183
34 | TTACTAAA | 0.202
35 | CCTAGGCG | 0.0568
36 | CGAAGTGC | -0.114
37 | GTATTCCA | 0.261
38 | ACATGCTG | -0.106
39 | ATACTATG | -0.0271
40 | ACCCATTC | -0.0565
41 | GGGGGCCA | 0.258
42 | ATTACTAA | 0.132
43 | CGTGCAGC | -0.0937
44 | CATGATTC | -0.0693
45 | ACACAACC | -0.006
46 | GTCAGAAA | 0.0237
47 | AATAAAAC | 0.0398
48 | GGCAAGTA | -0.0205
49 | ATAATGGA | 0.196
50 | GACCCGTC | -0.0902

Row | Sequence | PBM E-score
51 | CGGGGGGA | -0.246
52 | AACATATA | -0.0814
53 | AGGGCTGG | 0.0552
54 | CTAAGTTC | -0.0278
55 | AGAGTTCA | -0.267
56 | CATTTGGA | 0.172
57 | AGACCGCA | 0.0808
58 | ACTGCGAT | -0.167
59 | AATGTTAA | 0.111
60 | CAAGCAAG | -0.0879
61 | CACCGACC | -0.0723
62 | TTGCAAAA | 0.185
63 | AATGTCTA | -0.0034
64 | GGAGATCC | 0.161
65 | TCAAGGGA | -0.231
66 | AGGCGCGA | 0.138
67 | GCTTCCCC | 0.341
68 | ATCAACCC | 0.0738
69 | GTCACTAA | 0.107
70 | ATTACCGC | 0.146
71 | GGCCTCGA | -0.106
72 | CCTGGCAA | -0.0274
73 | AGCTCCAA | 0.128
74 | AACCTACT | 0.0293
75 | CTCGGAGC | -0.0102

Row | Sequence | PBM E-score
76 | ACCCAGAG | 0.141
77 | CCCGCCAG | -0.0181
78 | CTACGACA | 0.103
79 | CGTTAGGC | -0.0314
80 | CAAAAAGA | 0.209
81 | AAGGGTGC | 0.155
82 | TAGTCTCA | -0.205
83 | ACCCCACA | 0.0881
84 | CATTTCCG | -0.0131
85 | CGGTCCGA | -0.00907
86 | AAGTGTAG | 0.0971
87 | ACTCTTAC | -0.00531
88 | AATTGAAG | 0.0303
89 | AGAAGCGC | 0.221
90 | ACTAGGAG | 0.123
91 | AATAGGAG | 0.217
92 | GACGCAGC | 0.138
93 | TAGAAAGA | 0.0699
94 | AGATTTGA | 0.0916
95 | GCGCCCTA | 0.319
96 | GGGGTTCA | -0.157
97 | AGTCCAAC | -0.171
98 | ATCTTTCA | 0.154
99 | AGTCTTGC | -0.12
100 | AATAAGTA | 0.206

Row | Sequence | PBM E-score
101 | GCCCAGAC | 0.0992
102 | ATAGTGAT | 0.074
103 | CCTGAAAA | 0.0934
104 | CCGGTCGC | 0.0472
105 | AAAAAGTG | 0.16
106 | ACAAGCAC | 0.0877
107 | GTGTACGA | -0.0709
108 | CTGGTTCA | -0.192
109 | AGGGGACG | 0.141
110 | CATACCCA | -0.0403
111 | AAGCCCTT | -0.0429
112 | GCCGTGGA | 0.0942
113 | CATTTATA | -0.0203
114 | AGAACAAC | -0.167
115 | CGACACTA | -0.00768
116 | TACCGGCA | 0.173
117 | CAGTAGGA | -0.118
118 | AGGGTTGA | -0.0417
119 | AAATCCTT | -0.171
120 | CACCGGTC | -0.271
121 | ACCGACTG | -0.0894
122 | AACAAAAC | -0.0611
123 | ATAACAGA | -0.0408
124 | CCGGACGA | 0.0323
125 | CCTTCAGA | 0.14

Row | Sequence | PBM E-score
126 | CACACGCG | 0.0832
127 | ACGCAAGG | -0.0936
128 | AGCGCTAG | -0.288
129 | CTACCTCA | -0.107
130 | CATGTCCG | -0.271
131 | CCCGGGCA | 0.187
132 | CTCGAATC | 0.0437
133 | AGACCGGG | -0.0795
134 | ACACAAGA | 0.264
135 | CCATTAGA | 0.0419
136 | ATCTAATG | 0.052
137 | CTACATTA | -0.0323
138 | CACAAACA | 0.044
139 | AGAACACC | -0.038
140 | ATGTTAGG | 0.0142
141 | AGAAGTCT | -0.267
142 | GAGATTCC | 0.363
143 | AATCTTCC | -0.105
144 | AGTTAGGG | -0.0291
145 | CCCGTTCC | 0.0167
146 | AAACTTAA | 0.0811
147 | GAGTCCCA | 0.313
148 | ATTACGAC | -0.0895
149 | AGACATGG | -0.248
150 | GTTTGTGA | -0.0265

Row | Sequence | PBM E-score
151 | CCGATAGG | 0.0042
152 | AACTGAGC | -0.0384
153 | ATCAATGG | 0.133
154 | CGTCATGC | -0.214
155 | AGACGTGA | -0.226
156 | TTCGCAAA | 0.16
157 | AACCCCTG | -0.167
158 | ATCTAAAC | 0.0803
159 | GCAACGAA | -0.13
160 | AAGGTCTC | -0.175
161 | AGAATATC | -0.0145
162 | ACGAACGA | -0.0006
163 | AGGAGAAT | 0.0732
164 | AGTTGATC | 0.0518
165 | ACTGCCAA | 0.0668
166 | CAATCAGC | 0.0177
167 | AGTTCATG | -0.0195
168 | AACAGGTT | 0.201
169 | AATTGATG | 0.136
170 | ATGACGTC | -0.0147
171 | CCCAGCGC | -0.0407
172 | AATTGCAA | -0.0248
